From paper PMC5065627
No constants are given. Whether binding was seen depends on the method and setting. For some assays here: In cells and extracts the contact can be indirect. Some binding calls cover weakened binding; strength is not graded here. For some assays here: Sequences can lack the tags named with a protein.

Protein sequences, listed by entry. Tags and fused reporters are not part of them.
UniProt Q9FTA2: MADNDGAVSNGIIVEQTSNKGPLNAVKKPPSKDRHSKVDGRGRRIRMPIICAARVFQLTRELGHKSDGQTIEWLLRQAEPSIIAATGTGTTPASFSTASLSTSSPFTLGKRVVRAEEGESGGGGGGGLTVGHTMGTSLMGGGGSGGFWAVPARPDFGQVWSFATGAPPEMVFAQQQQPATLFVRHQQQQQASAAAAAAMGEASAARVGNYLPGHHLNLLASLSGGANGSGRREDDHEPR
UniProt Q9LSD5: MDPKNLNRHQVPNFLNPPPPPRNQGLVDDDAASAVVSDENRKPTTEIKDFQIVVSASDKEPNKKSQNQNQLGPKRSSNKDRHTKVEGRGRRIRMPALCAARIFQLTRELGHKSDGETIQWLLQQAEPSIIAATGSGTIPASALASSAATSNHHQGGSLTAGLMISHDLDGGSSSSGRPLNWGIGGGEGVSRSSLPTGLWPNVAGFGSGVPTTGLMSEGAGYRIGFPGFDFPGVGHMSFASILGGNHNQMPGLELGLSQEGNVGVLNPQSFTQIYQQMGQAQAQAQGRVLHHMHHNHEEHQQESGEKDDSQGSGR
UniProt Q9C7G4: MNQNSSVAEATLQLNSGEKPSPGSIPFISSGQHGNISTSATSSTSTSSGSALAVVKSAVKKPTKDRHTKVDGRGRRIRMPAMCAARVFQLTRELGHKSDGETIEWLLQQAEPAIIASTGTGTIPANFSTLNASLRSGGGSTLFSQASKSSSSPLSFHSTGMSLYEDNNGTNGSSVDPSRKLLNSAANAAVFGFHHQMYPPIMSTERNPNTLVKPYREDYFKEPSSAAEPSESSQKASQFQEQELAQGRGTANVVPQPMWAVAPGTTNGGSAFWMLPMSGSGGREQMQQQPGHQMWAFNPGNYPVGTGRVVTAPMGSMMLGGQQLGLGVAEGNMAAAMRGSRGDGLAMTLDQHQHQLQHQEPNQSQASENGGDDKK
UniProt Q9FMX2: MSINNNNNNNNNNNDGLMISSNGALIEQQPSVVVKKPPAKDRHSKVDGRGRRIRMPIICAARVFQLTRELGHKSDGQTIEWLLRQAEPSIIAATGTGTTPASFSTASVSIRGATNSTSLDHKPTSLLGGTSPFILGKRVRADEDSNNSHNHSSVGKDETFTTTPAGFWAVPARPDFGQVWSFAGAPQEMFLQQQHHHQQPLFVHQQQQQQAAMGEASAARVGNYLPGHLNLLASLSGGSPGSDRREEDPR
UniProt Q9C518: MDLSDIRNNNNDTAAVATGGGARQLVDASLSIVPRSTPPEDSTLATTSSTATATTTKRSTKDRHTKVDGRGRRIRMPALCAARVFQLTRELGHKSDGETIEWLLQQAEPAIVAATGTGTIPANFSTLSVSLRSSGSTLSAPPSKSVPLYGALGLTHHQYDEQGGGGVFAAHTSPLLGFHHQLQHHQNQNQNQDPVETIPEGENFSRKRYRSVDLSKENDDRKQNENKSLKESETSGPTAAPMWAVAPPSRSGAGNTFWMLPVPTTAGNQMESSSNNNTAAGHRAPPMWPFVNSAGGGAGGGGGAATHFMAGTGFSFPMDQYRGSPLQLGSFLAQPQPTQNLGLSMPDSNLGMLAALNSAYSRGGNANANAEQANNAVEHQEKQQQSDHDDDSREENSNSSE
UniProt O64647: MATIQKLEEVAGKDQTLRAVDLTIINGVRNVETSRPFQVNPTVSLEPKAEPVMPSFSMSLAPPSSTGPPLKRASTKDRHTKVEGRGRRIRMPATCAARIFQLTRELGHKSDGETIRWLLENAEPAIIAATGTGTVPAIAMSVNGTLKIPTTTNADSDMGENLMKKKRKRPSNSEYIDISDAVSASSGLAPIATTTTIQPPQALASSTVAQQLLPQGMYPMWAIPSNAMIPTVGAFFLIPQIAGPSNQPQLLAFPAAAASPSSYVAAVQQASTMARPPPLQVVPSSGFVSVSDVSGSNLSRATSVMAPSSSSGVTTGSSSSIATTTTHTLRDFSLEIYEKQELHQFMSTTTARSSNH
UniProt Q93Z00: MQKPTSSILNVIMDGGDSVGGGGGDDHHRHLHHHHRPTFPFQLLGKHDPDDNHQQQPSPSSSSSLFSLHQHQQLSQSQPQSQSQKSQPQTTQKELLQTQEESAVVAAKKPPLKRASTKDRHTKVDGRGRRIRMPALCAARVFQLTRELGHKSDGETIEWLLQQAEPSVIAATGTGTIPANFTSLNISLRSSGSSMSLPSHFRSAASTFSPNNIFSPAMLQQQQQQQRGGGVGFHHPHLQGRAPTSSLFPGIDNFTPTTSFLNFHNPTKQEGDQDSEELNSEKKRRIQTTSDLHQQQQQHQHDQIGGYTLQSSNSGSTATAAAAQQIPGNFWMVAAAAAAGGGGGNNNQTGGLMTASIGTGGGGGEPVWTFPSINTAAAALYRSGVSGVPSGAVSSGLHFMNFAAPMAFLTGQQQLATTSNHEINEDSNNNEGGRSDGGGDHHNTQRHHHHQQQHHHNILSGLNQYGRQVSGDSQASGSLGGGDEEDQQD
UniProt Q9LQF0: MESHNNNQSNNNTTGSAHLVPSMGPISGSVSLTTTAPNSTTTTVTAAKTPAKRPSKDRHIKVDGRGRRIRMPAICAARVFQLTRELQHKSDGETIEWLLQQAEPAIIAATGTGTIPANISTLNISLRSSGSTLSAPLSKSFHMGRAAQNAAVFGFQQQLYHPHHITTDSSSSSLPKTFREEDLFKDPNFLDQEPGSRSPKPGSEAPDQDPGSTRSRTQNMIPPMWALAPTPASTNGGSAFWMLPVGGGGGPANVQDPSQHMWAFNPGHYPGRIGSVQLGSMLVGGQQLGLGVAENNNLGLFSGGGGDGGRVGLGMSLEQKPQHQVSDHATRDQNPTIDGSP

Columns and labels:
[1] = molecular target: T1, LIGHT-REGULATED WD1 (LWD1), yeast two-hybrid bait (Arabidopsis thaliana) (UniProt Q9LPV9); assay: two-hybrid; library screen: LWD1 as bait against a prey library of about 1,400 Arabidopsis full-length transcription factors; positive clones sequenced
T1 sequence: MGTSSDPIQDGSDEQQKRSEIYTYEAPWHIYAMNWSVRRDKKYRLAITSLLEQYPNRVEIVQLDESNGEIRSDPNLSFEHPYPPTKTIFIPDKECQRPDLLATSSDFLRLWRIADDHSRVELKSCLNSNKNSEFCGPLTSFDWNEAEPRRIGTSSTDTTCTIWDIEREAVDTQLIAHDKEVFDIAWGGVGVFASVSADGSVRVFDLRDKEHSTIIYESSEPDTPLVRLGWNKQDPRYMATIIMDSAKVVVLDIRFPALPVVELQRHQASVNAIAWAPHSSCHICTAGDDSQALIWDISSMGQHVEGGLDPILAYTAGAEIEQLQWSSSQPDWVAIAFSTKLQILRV

[2] = molecular target: T2, NLUC2-LWD1 (luciferase complementation imaging) (Arabidopsis thaliana) (UniProt Q9LPV9); assay: split reporter; luciferase complementation imaging: NLUC2 fusions of LWD1 or ΔLWD1 with CLUC2 fusions of TCP20 or TCP22, under native promoters, in Arabidopsis seedlings (AGROBEST)
T2 sequence: T1 sequence

[3] = molecular target: T3, NLUC2-ΔLWD1 (luciferase complementation imaging), truncated LWD1 lacking amino acids 236–290 (Arabidopsis thaliana) (UniProt Q9LPV9); assay: as above
T3 sequence: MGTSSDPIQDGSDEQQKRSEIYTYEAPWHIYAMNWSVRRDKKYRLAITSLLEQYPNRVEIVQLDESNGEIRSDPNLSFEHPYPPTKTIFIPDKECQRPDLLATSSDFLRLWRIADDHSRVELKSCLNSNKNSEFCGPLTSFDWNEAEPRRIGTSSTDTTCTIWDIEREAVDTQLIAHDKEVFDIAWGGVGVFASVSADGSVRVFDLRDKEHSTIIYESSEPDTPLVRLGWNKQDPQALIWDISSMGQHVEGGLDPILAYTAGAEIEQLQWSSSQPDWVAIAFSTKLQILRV

[4] = molecular target: T4, Venus N173-fused LWD1 (BiFC) (Arabidopsis thaliana) (UniProt Q9LPV9); assay: split reporter; BiFC: Venus N173 fusions of LWD1 or ΔLWD1 co-expressed with SCFP3A C155 fusions of TCPs in Arabidopsis seedlings (AGROBEST); confocal microscopy three days after infection
T4 sequence: T1 sequence

[5] = molecular target: T5, LIGHT-REGULATED WD2 (LWD2), yeast two-hybrid bait (Arabidopsis thaliana) (UniProt Q38960); assay: two-hybrid; pairwise, GAL4-based system (…, Clontech): LWD1 or LWD2 in pDBLeu as bait, TCPs in pEXP-AD502HA as prey; growth on SD-WLH with 3-AT (2 mM in Fig. 2a), reporter gene HIS3
T5 sequence: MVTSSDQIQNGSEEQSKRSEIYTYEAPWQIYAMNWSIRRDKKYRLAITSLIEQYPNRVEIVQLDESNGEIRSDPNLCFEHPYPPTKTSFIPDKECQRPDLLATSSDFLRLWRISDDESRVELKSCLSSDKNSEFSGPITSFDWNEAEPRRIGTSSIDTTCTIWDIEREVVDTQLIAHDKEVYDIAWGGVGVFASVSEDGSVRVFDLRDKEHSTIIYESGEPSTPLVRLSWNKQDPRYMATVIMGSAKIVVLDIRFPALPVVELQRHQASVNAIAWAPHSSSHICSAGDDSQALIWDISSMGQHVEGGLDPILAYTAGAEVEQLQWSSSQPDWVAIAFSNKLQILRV

[6] = molecular target: T1, LIGHT-REGULATED WD1 (LWD1), yeast two-hybrid bait (Arabidopsis thaliana); assay: as above

binding [5] | binding [6] | Substance | further results
 |  | CCA1 HIKING EXPEDITION (CHE), prey of the transcription factor library (from UniProt Q9FTA2 1-239) | binding [1]: binds
 |  | CLUC2-TCP20 (luciferase complementation imaging) (from UniProt Q9LSD5 1-314) | binding [2]: binds; binding [3]: no binding
 |  | CLUC2-TCP22 (luciferase complementation imaging) (from UniProt Q9C7G4 1-375) | binding [2]: binds; binding [3]: no binding
 |  | SCFP3A C155-fused CHE (BiFC) (from UniProt Q9FTA2 1-239) | binding [4]: binds
 |  | SCFP3A C155-fused TCP20 (BiFC) (from UniProt Q9LSD5 1-314) | binding [4]: binds
 |  | SCFP3A C155-fused TCP22 (BiFC) (from UniProt Q9C7G4 1-375) | binding [4]: binds
binds | binds | TCP7, prey in pEXP-AD502HA (from UniProt Q9FMX2 1-250) | 
binds | binds | TCP8, prey in pEXP-AD502HA (from UniProt Q9C518 1-401) | 
binds | binds | TCP9, prey in pEXP-AD502HA (from UniProt O64647 1-356) | 
binds | binds | TCP14, prey in pEXP-AD502HA (from UniProt Q93Z00 1-489) | 
binds | binds | TCP15, prey in pEXP-AD502HA (from UniProt Q9C9L2 1-325) | 
binds | binds | TCP23, prey in pEXP-AD502HA (from UniProt Q9LQF0 1-341) | 
binds | binds | TEOSINTE BRANCHED 1-CYCLOIDEA-PCF20 (TCP20), prey in pEXP-AD502HA (from UniProt Q9LSD5 1-314) | 
 |  | TEOSINTE BRANCHED 1-CYCLOIDEA-PCF20 (TCP20), prey of the transcription factor library (from UniProt Q9LSD5 1-314) | binding [1]: binds
binds | binds | TEOSINTE BRANCHED 1-CYCLOIDEA-PCF22 (TCP22), prey in pEXP-AD502HA (from UniProt Q9C7G4 1-375) | 
 |  | TEOSINTE BRANCHED 1-CYCLOIDEA-PCF22 (TCP22), prey of the transcription factor library (from UniProt Q9C7G4 1-375) | binding [1]: binds
